# From PubChem BioAssay AID1508624 (National Center for Advancing Translational Sciences (NCATS), 2021)
# The campaign covered roughly 48,000 compounds. About 120 (0.25%) were called active. Roughly 4% stayed inconclusive and do not appear here. Calls come from the whole dose curve; as a rule, active = well fitted activation curve with a large enough effect; inconclusive = small, poorly fitted or top-dose-only effect, or another doubt; inactive = no such curve, though single readings can be large or run the other way. Some of the results follow.
# Assay: Primary qHTS for Identification of Small Molecule Activators of Huntingtin-Antisense Promoter Activity; note: nearly all actives have a fitted effect of over 55% in size
# Conditions: HEK293 HTT-AS promoter firefly luciferase reporter, 24 h; series mostly up to 57.5 µM; activity change, positive = activation: at the top concentration
# Procedure, shortened: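 Firefly luciferase signal from promoter-reporter HEK293 cells was scaled between vehicle (0%) and zero RLU (-100%). Compounds were tested at final concentrations of up to 57.5 uM over 24 h at 37 degrees C. PTC124 at 50 uM final served as control inhibitor.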
row,SMILES,"activity change, positive = activation"
1,Cc1cccc(C)c1NC(=O)c1cc2sccc2n1Cc1ccc(F)cc1,inactive: -15.7%
2,CCN(Cc1ccccc1)S(=O)(=O)c1ccc(F)c(C(=O)Nc2ccc(C(C)C)cc2)c1,inactive: -16.1%
3,COc1ccc(OC)c(CNc2ncc(-c3ccc(Cl)cc3)n2C)c1,inactive: -6.19%
4,COc1cc(NC(=O)C2CCN(S(=O)(=O)c3c(C)noc3/C=C/c3c(C)cc(C)cc3C)CC2)cc(OC)c1,inactive: 12.9%
5,Cc1ccc(CNC(=O)c2cn(C)c3ccc(S(=O)(=O)N4CCC(C)CC4)cc3c2=O)cc1,inactive: -1.66%
6,O=C(NCCCc1ccccc1)c1ccc2c(c1)sc1nc(-c3ccc(F)cc3)cn12,inactive: -7.35%
7,COc1ccccc1N1CCN(CC(O)COc2cccc3ccccc23)CC1 (configuration not stated),inactive
8,Cc1ccccc1CN1C(=O)c2ccccc2Sc2ccc(C(=O)NCCCN3CCOCC3)cc21,inactive: -20.5%
9,Cc1ccc(Sc2c(C)nn(-c3ccccc3)c2OC(=O)CC(C)C)cc1,inactive: -8.24%
10,CN1CCCC(CC2c3ccccc3Sc3ccccc32)C1 (configuration not stated),inactive: -16%
11,CCOc1ccc(CC(=O)NCc2ccc3c(c2)CCN3C(=O)c2ccc(F)cc2)cc1OCC,inactive: -18.6%
12,CCOc1ccc(C2c3[nH]c4ccccc4c3CCN2C(=O)CCC2CCCC2)cc1 (configuration not stated),inactive: -26.8%
13,CCOC(=O)C1CCCN(S(=O)(=O)c2cc(Br)cc3c2N(C(=O)CC)CC3)C1 (configuration not stated),inactive: -4.65%
14,Cc1ccc(COC(=O)c2ccc(-c3nnn(Cc4ccc(C)cc4)n3)cc2)cc1,inactive: -1.87%
15,Cc1ccn2c(=O)c(NC(=O)c3cccc([N+](=O)[O-])c3C)c(C)nc2c1,inactive: -20.4%
16,CCN(CCCNC(=O)CN1N=C(c2ccc(C)cc2)CCC1=O)c1ccccc1,inactive: -13.3%
17,O=c1cc(-c2ccccc2)nc(SCc2nc(-c3cccc(C(F)(F)F)c3)no2)[nH]1,inactive: -2.35%
18,CCCCN(CC)C(=O)Cn1cc2c(n1)-c1c(oc(C(=O)N3CCCC3)c1C)CC2,inactive: -24.3%
19,CC(=O)C(Sc1nc(-c2ccccc2Cl)nc2c1c(=O)n(C)c(=O)n2C)C(=O)N(C)C (configuration not stated),inactive: -8.79%
20,CN1CCC(=C2c3ccccc3CC(=O)c3sccc32)CC1,inactive
21,Cc1ccc(Cn2c(Cc3ccccc3)nc3ccccc32)cc1,inactive: -32.3%
22,COC(=O)c1ccc(NC(=O)CCOc2ccccc2)cc1,inactive: 27.9%
23,CC(COc1ccccc1)NN (configuration not stated),inactive: -1.87%
24,CCOc1ccc(CN2C(=O)c3ccccc3Sc3ccc(C(=O)NC4CCC(C)CC4)cc32)cc1 (configuration not stated),inactive: -28.8%

row,SMILES,"activity change, positive = activation"
1,Cc1ccc(N(CC(=O)NCc2ccc(OC(C)C)cc2)S(=O)(=O)N(C)C)cc1,inactive: -24.6%
2,CCOC(=O)c1ccccc1NC(=O)CCc1c(C)nc2c(c1C)c(=O)n(C)c(=O)n2C,inactive: -2.23%
3,COc1ccc(CNC(=O)CCS(=O)(=O)c2cc3c4c(c2)CCN4C(=O)CC3)cc1,inactive: -1.7%
4,O=C(NC1CC(=O)N(c2ccc(F)cc2)C1)C(c1ccccc1)c1ccccc1 (configuration not stated),inactive: -15%
5,Cn1cc(C(=O)N2CCN(c3ccccc3)CC2)c(=O)c2cc(S(=O)(=O)N3CCCC3)ccc21,"inactive: -4.53% [at 11.5 µM, percent change from vehicle, -100% = no light]"
6,Cc1cccc(NC(=O)Cn2c(=O)oc3cc(S(=O)(=O)N4CCCCCC4)ccc32)c1,inactive: -50.4%
7,COc1ccc(-c2noc(CSc3nnc(-c4ccncc4)n3-c3ccc(OC)cc3)n2)cc1,inactive: -36.5%
8,COc1ccccc1NC(=O)C1=C(C)Nc2nc(SCc3ccccc3)nn2C1c1cccs1 (configuration not stated),inactive: -18.8%
9,Cc1ccc(NC(=O)CN2C(=O)c3ccccc3Sc3ncccc32)c(C)c1,inactive: -30%
10,O=C(NCCc1ccc(Cl)cc1)c1ccc2c(c1)N(Cc1ccccc1)C(=O)CS2,inactive: -34%
11,CC(=O)c1ccc(NC(=O)c2nn(C)c3c2COc2ccccc2-3)cc1,inactive: 21.4%
12,CCn1c(SCC(=O)Nc2cc(Cl)ccc2OC)nc2c([nH]c3ccccc32)c1=O,inactive: -10.3%
13,CCOc1ccccc1NC(=O)N1CCC(N2CCN(Cc3ccccc3)C(=O)C2=O)CC1,inactive: -8.42%
14,CC(Oc1ccccc1F)C(=O)N1CCC(c2nc3ccccc3o2)CC1 (configuration not stated),inactive: -27.5%
15,CCOC(=O)c1c(NC(=O)c2cc(-c3ccc(Br)cc3)on2)sc(C)c1C,inactive: -1.38%
16,CCc1cc2c(-c3ccccc3)cc(=O)oc2c2c1OCN(Cc1ccc(C)cc1)C2,inactive: -16.6%
17,O=c1c2ccccc2nc(-c2ccc(Cl)cc2)n1CCCCOc1ccc(F)cc1,inactive: -2.38%
18,CC(C)c1ccc(NC(=O)CN(C)S(=O)(=O)c2ccc3c(c2)n(C)c(=O)c(=O)n3C)cc1,inactive: -10.2%
19,CCOC(=O)N1CCN(CCC(=O)Nc2cc(C)ccc2C)CC1,inactive: -4.39%
20,CCn1cnc2cc(NCc3ccc(N(C)C)cc3)ccc21,inactive: 12.5%
21,CCC1CCCCN1C(=O)CSc1nc(-c2ccc(OC)cc2)cc(C(F)(F)F)n1 (configuration not stated),inactive: -43.5%
22,CCCCCCCCCCCCOS(=O)(=O)O,inactive: 0.895%
23,CCn1cc2nc(SCC(=O)Nc3cccc(Cl)c3C)n(Cc3ccc(Cl)cc3)c(=O)c2n1,inactive: -14%
